Source: the supplement of paper PMC4967469

Experiments:
Assay in all cases: Viability of human cancer cell lines after 72 h of drug (GDSC screen)
[1] = compound: CCN1CCN(Cc2ccc(NC(=O)c3ccc(C)c(Oc4ccnc5[nH]ccc45)c3)cc2C(F)(F)F)CC1 [NG-25]; settings: top dose 10.24 µM; top dose inferred
Experimental: (§1)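 Human cancer cell lines in 384-well plates, medium with 10% serum, drug for 72 h over a 256-fold dose range (nine 2-fold or five 4-fold steps up to the top dose). Adherent lines were fixed and stained with the nucleic acid dye Syto60, suspension lines read with resazurin; signal relative to control wells, capped at 0 and 100%. One two-parameter sigmoid per drug and line, fitted in a mixed model over all curves with the slope shared within a line.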

[2] = compound: Cn1cncc1[C@@](N)(c1ccc(Cl)cc1)c1ccc2c(c1)c(-c1cccc(Cl)c1)cc(=O)n2C [Tipifarnib]; settings: top dose 16 µM; top dose inferred
Experimental: as §1

[3] = compound: COc1cc(C)c(Sc2cnc(NC(=O)c3ccc(CNC(C)C(C)(C)C)cc3)s2)cc1C(=O)N1CCN(C(C)=O)CC1 [BMS-509744]; settings: top dose 10.24 µM; top dose inferred
Experimental: as §1

[4] = compound: CCc1cc(Nc2nccc(-c3c(-c4ccc(OC)c(C(=O)Nc5c(F)cccc5F)c4)nc4ccccn34)n2)c(OC)cc1N1CCC(N2CCN(S(C)(=O)=O)CC2)CC1 [GSK-1904529A]; settings: top dose 1.024 µM; top dose inferred
Experimental: as §1

[5] = compound: COc1ccccc1S(=O)(=O)Nc1ccc2c(c1)CN(C)C(=O)N2 [PFI-1]; settings: top dose 10 µM; top dose inferred
Experimental: as §1

| Cell Line | AUC [1] | pIC50 [1] | AUC [2] | pIC50 [2] | AUC [3] | AUC [4] | pIC50 [4] | AUC [5] | pIC50 [5] | pIC50 [3] |
| --- | --- | --- | --- | --- | --- | --- | --- | --- | --- | --- |
| SW962 (urogenital system, adherent) | 0.814 | 5.13 | 0.599 | 5.70 | 0.824 | 0.958 | < 5.99 | 0.63 | 5.81 | – |
| MLMA (hairy cell leukaemia, semi-adherent) | 0.352 | 6.61 | 0.85 | 4.91 | 0.917 | 0.986 | < 5.99 | 0.738 | 5.52 | < 4.99 |
| GDM-1 (acute myeloid leukaemia, suspension) | 0.103 | > 7.40 | 0.35 | 6.41 | 0.833 | 0.985 | < 5.99 | 0.849 | 5.15 | 5.21 |
| HA7-RCC (kidney, adherent) | 0.811 | 5.21 | 0.522 | 5.94 | 0.854 | 0.981 | < 5.99 | 0.886 | < 5.00 | 5.03 |
| MN-60 (B-cell leukaemia, suspension) | 0.836 | 5.14 | 0.828 | 4.98 | 0.957 | 0.986 | < 5.99 | 0.77 | 5.40 | < 4.99 |
| OCI-LY-19 (B-cell lymphoma, suspension) | 0.686 | 5.69 | 0.388 | 6.30 | 0.851 | 0.987 | < 5.99 | 0.879 | 5.05 | 5.16 |
| NCI-H1417 (small cell lung carcinoma, suspension) | 0.921 | < 4.99 | 0.941 | < 4.80 | 0.934 | 0.982 | < 5.99 | 0.734 | 5.47 | < 4.99 |
| COR-L88 (small cell lung carcinoma, adherent) | 0.925 | < 4.99 | 0.858 | < 4.80 | 0.978 | 0.977 | < 5.99 | 0.938 | < 5.00 | < 4.99 |
| KNS-42 (glioma, adherent) | 0.875 | < 4.99 | 0.718 | 5.32 | 0.866 | 0.962 | < 5.99 | 0.874 | < 5.00 | < 4.99 |
| NCI-H2141 (small cell lung carcinoma, suspension) | 0.924 | < 4.99 | 0.955 | < 4.80 | 0.927 | 0.988 | < 5.99 | 0.99 | < 5.00 | < 4.99 |
| NTERA-2 cl.D1 (testis, adherent) | 0.816 | 5.25 | 0.32 | 6.50 | 0.745 | 0.972 | < 5.99 | 0.777 | 5.40 | 5.50 |
| COLO-684 (endometrium, suspension) | 0.82 | 5.17 | 0.612 | 5.67 | 0.968 | 0.971 | < 5.99 | 0.878 | < 5.00 | < 4.99 |
| BV-173 (chronic myeloid leukaemia, suspension) | 0.043 | > 7.40 | 0.676 | 5.54 | 0.891 | 0.989 | < 5.99 | 0.771 | 5.47 | 5.02 |
| BB49-HNC (head and neck, adherent) | 0.883 | < 4.99 | 0.68 | 5.41 | 0.935 | 0.902 | < 5.99 | 0.789 | 5.18 | < 4.99 |
| GRANTA-519 (B-cell lymphoma, suspension) | 0.844 | 5.20 | 0.868 | 4.91 | 0.987 | 0.991 | < 5.99 | 0.963 | < 5.00 | < 4.99 |
| BT-474 (breast, adherent) | 0.897 | < 4.99 | 0.884 | < 4.80 | 0.981 | 0.966 | < 5.99 | 0.908 | < 5.00 | < 4.99 |
| U-698-M (B-cell leukaemia, suspension) | 0.714 | 5.59 | 0.709 | 5.41 | 0.945 | 0.954 | < 5.99 | 0.941 | < 5.00 | < 4.99 |
| NB7 (neuroblastoma, adherent) | 0.842 | 5.12 | 0.344 | 6.44 | 0.94 | 0.986 | < 5.99 | 0.778 | 5.37 | < 4.99 |
| SJSA-1 (bone, adherent) | 0.922 | < 4.99 | 0.695 | 5.42 | 0.803 | 0.982 | < 5.99 | 0.831 | 5.12 | 5.23 |
| HT-144 (melanoma, adherent) | 0.955 | < 4.99 | 0.492 | 6.02 | 0.735 | 0.979 | < 5.99 | 0.873 | < 5.00 | 5.49 |
| NB10 (neuroblastoma, adherent) | 0.838 | 5.18 | 0.674 | 5.52 | 0.987 | 0.985 | < 5.99 | 0.876 | 5.02 | < 4.99 |
| SU-DHL-8 (B-cell lymphoma, suspension) | 0.768 | 5.44 | 0.452 | 6.13 | 0.914 | 0.981 | < 5.99 | 0.807 | 5.33 | < 4.99 |
| LB2241-RCC (kidney, adherent) | 0.962 | < 4.99 | 0.684 | 5.46 | 0.957 | 0.966 | < 5.99 | 0.826 | 5.15 | < 4.99 |
| KP-N-YN (neuroblastoma, adherent) | 0.986 | < 4.99 | 0.963 | < 4.80 | 0.934 | 0.987 | < 5.99 | 0.832 | 5.14 | < 4.99 |
| CHP-126 (neuroblastoma, suspension) | 0.88 | < 4.99 | 0.914 | < 4.80 | 0.835 | 0.985 | < 5.99 | 0.971 | < 5.00 | 5.16 |

| Cell Line | AUC [1] | pIC50 [1] | AUC [2] | pIC50 [2] | AUC [3] | AUC [4] | pIC50 [4] | AUC [5] | pIC50 [5] | pIC50 [3] |
| --- | --- | --- | --- | --- | --- | --- | --- | --- | --- | --- |
| KARPAS-422 (B-cell lymphoma, suspension) | 0.887 | < 4.99 | 0.805 | 5.10 | 0.912 | 0.988 | < 5.99 | 0.901 | < 5.00 | < 4.99 |
| NKM-1 (acute myeloid leukaemia, suspension) | 0.122 | > 7.40 | 0.457 | 6.12 | 0.87 | 0.984 | < 5.99 | 0.827 | 5.20 | – |
| SW982 (soft tissue, adherent) | 0.853 | 5.08 | 0.678 | 5.50 | 0.753 | 0.982 | < 5.99 | 0.817 | 5.24 | 5.45 |
| GAK (melanoma, adherent) | 0.884 | 4.99 | 0.713 | 5.41 | 0.945 | 0.962 | < 5.99 | 0.886 | < 5.00 | < 4.99 |
| LNCaP-Clone-FGC (prostate, adherent) | 0.866 | < 4.99 | 0.822 | 4.95 | 0.967 | 0.97 | < 5.99 | 0.813 | 5.19 | < 4.99 |
| ME-1 (acute myeloid leukaemia, suspension) | 0.908 | < 4.99 | 0.882 | < 4.80 | 0.969 | 0.989 | < 5.99 | 0.949 | < 5.00 | < 4.99 |
| LB831-BLC (bladder, adherent) | 0.747 | 5.48 | 0.648 | 5.59 | 0.775 | 0.959 | < 5.99 | 0.875 | < 5.00 | 5.39 |
| LS-411N (large intestine, adherent) | 0.882 | < 4.99 | 0.517 | 5.95 | 0.766 | 0.955 | < 5.99 | 0.847 | 5.00 | 5.34 |
| NCI-H446 (small cell lung carcinoma, semi-adherent) | 0.78 | 5.34 | 0.961 | < 4.80 | 0.929 | 0.986 | < 5.99 | 0.762 | 5.42 | < 4.99 |
| NB-4 (acute myeloid leukaemia, suspension) | 0.73 | 5.61 | 0.158 | 6.92 | 0.988 | 0.985 | < 5.99 | 0.663 | 5.79 | < 4.99 |
| EW-1 (Ewing sarcoma, semi-adherent) | 0.773 | 5.44 | 0.786 | 5.20 | 0.755 | 0.961 | < 5.99 | 0.988 | < 5.00 | 5.49 |
| ROS-50 (B-cell leukaemia, suspension) | 0.64 | 5.76 | 0.922 | < 4.80 | 0.925 | 0.983 | < 5.99 | 0.97 | < 5.00 | < 4.99 |
| NCI-H747 (large intestine, adherent) | 0.826 | 5.09 | 0.557 | 5.83 | 0.765 | 0.979 | < 5.99 | 0.863 | < 5.00 | 5.34 |
| NH-12 (neuroblastoma, adherent) | 0.842 | 5.07 | 0.736 | 5.28 | 0.956 | 0.985 | < 5.99 | 0.951 | < 5.00 | < 4.99 |
| A4-Fuk (B-cell lymphoma, suspension) | 0.862 | 5.03 | 0.271 | 6.67 | 0.638 | 0.979 | < 5.99 | 0.774 | 5.39 | 5.80 |
| NCI-SNU-1 (stomach, suspension) | 0.691 | 5.65 | 0.745 | 5.29 | 0.883 | 0.988 | < 5.99 | 0.984 | < 5.00 | < 4.99 |
| HT (B-cell lymphoma, suspension) | 0.834 | 5.23 | 0.677 | 5.53 | 0.953 | 0.986 | < 5.99 | 0.873 | 5.08 | < 4.99 |
| AMO-1 (haematopoietic neoplasm, suspension) | 0.761 | 5.50 | 0.785 | 5.23 | 0.931 | 0.985 | < 5.99 | 0.761 | 5.51 | < 4.99 |
| VA-ES-BJ (soft tissue, adherent) | 0.87 | < 4.99 | 0.604 | 5.71 | 0.923 | 0.985 | < 5.99 | 0.618 | 5.87 | < 4.99 |
| NB1 (neuroblastoma, semi-adherent) | 0.752 | 5.43 | 0.873 | < 4.80 | 0.914 | 0.975 | < 5.99 | 0.945 | < 5.00 | < 4.99 |
| OCI-AML3 (acute myeloid leukaemia, suspension) | 0.823 | 5.31 | 0.778 | 5.26 | 0.99 | 0.99 | < 5.99 | 0.652 | 5.81 | < 4.99 |
| EW-16 (Ewing sarcoma, adherent) | 0.878 | < 4.99 | 0.588 | 5.75 | 0.662 | 0.936 | < 5.99 | 0.892 | < 5.00 | 5.74 |
| GOTO (neuroblastoma, adherent) | 0.794 | 5.26 | 0.833 | 4.91 | 0.852 | 0.974 | < 5.99 | 0.794 | 5.27 | 5.01 |
| COLO-829 (melanoma, adherent) | 0.881 | < 4.99 | 0.835 | < 4.80 | 0.964 | 0.97 | < 5.99 | 0.928 | < 5.00 | < 4.99 |

pIC50: −log10 of the molar value. A lower IC50 marks a more sensitive line; a fit beyond the top or the lowest dose is shown as a bound at that dose. The AUC spans the tested range (256-fold, ending at the top dose) of the same fit: 1 means no effect, lower means more sensitive. Where the top dose is marked as inferred, it comes from the curve model; the source does not state it.
